From PubChem BioAssay AID1347165 (National Center for Advancing Translational Sciences (NCATS), 2019)
Values joined by “and” are separate entries in the source; they are usually repeats but may differ in a detail not shown here. Identical values can stand only once. Among all 220,000 compounds or so, about 5,700 (2.6%) were called active. The inconclusive results got no clear call from the source; some entries with a clear call stand among them for comparison. Calls come from the whole dose curve; as a rule, active = well fitted inhibition curve with a large enough effect; inconclusive = small, poorly fitted or top-dose-only effect; inactive = no such curve, though single readings can be large or run the other way. A potency beside an inconclusive call is a rough fit, not a confirmed value.

Target: Lysine-specific demethylase 5B (Homo sapiens) (UniProt Q9UGL1)
UniProt Q9UGL1, sequence (Q9UGL1 whole entry, looked up): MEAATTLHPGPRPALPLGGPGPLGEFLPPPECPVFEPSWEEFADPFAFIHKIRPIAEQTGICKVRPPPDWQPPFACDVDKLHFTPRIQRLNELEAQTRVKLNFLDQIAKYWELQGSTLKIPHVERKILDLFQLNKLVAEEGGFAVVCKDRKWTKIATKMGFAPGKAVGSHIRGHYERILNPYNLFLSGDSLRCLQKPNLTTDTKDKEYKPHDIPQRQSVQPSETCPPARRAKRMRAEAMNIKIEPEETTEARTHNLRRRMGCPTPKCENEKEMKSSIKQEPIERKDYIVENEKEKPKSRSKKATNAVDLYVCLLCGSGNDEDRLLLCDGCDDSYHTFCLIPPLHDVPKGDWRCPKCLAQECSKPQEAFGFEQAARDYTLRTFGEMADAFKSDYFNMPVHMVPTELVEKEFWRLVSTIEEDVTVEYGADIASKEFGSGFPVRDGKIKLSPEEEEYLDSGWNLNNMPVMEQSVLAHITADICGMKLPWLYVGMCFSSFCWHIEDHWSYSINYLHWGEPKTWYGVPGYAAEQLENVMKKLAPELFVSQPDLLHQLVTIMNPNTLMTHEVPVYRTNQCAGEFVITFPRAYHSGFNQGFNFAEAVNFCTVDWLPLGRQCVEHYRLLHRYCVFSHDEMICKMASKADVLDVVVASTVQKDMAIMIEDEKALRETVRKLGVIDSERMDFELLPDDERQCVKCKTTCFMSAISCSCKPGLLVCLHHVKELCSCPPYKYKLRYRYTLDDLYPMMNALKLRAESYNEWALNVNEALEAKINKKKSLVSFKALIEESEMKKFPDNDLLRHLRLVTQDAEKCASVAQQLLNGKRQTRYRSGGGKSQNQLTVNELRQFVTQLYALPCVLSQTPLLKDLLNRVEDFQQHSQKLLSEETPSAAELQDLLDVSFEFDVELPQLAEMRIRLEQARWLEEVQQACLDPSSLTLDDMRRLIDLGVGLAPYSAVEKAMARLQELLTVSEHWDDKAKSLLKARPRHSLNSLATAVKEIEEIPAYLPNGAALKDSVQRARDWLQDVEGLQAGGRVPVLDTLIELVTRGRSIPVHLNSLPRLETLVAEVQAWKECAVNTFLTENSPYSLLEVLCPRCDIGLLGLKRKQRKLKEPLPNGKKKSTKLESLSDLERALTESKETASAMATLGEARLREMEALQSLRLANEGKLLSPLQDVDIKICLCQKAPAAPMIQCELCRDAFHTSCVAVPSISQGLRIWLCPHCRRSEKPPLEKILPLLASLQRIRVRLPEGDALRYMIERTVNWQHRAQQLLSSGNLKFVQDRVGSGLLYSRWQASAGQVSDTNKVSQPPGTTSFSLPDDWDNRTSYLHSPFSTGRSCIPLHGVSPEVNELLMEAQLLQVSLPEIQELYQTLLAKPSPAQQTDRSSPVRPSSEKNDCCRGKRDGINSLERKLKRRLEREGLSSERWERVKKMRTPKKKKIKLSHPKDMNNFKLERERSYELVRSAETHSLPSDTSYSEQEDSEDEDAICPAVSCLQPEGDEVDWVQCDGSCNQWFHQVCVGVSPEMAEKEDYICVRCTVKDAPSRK
Experiment: Primary screen for KDM5B Histone Demethylases FDH-coupled qHTS; note: nearly all actives have a fitted effect of over 70% in size; for activity change, negative = inhibition: 0% is about no effect
Conditions: FDH-coupled NADH fluorescence (FDH is formaldehyde dehydrogenase); activity change, negative = inhibition: at 57.7 µM (top of the series) unless noted
How it was run: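 qHTS format, multiple compound concentrations. Buffer 50 mM HEPES pH 7.5/0.01% Tween-20; 200 nM KDM5BΔAP final; 10 min compound preincubation; substrate-mix levels 12.5 µM peptide, 25 µM α-KG, 0.25 mM NAD⁺; 30 min RT; ΔRFU.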
Potency is the fitted concentration of half-maximal effect; tags give direction and shape of the fitted curve.

| Structure (SMILES) | Potency | activity change, negative = inhibition |
| --- | --- | --- |
| CCc1ccccc1Nc1cc(C(=O)NC2CCC(C)CC2)c2ccccc2n1 (configuration not stated) | inconclusive: 39.8 µM [inhibitor, single point] |  |
| CC(NC(=O)CCc1ccccc1)C(=O)N1CCN(c2ccccn2)CC1 (configuration not stated) | active: 25.1 µM |  |
| CCn1c(CO)nnc1C1CC(NC(=O)Cn2cnc3ccccc3c2=O)C1 (configuration not stated) |  | inactive: -4.26% |
| COCCN1CCCCCC(O)c2cc(C(=O)NCCCN3CCCc4ccccc43)ccc21 (configuration not stated) | inconclusive: 17.8 µM [inhibitor, partial curve, poor fit] |  |
| CN(C)C(=O)c1ccnc(-c2nnc3ccc(Nc4ccc(F)c(Cl)c4)nn23)c1 | inconclusive: 56.2 µM [inhibitor, single point] |  |
| N#Cc1ccc(CN2CCC(c3nc4ccncc4[nH]3)C2)cc1 (configuration not stated) | inconclusive: 100 µM [inhibitor, single point] and inconclusive: 35.5 µM [inhibitor, single point] |  |
| COc1ccc(C(=O)N2CCC3(CC2)CC(=O)c2ccc(Cl)cc2O3)cc1 |  | inactive: -15.3% |
| CCOCCn1c(CN2CCN(C(=O)OCC)CC2)nc2c1c(=O)[nH]c(=O)n2C |  | inactive: -6.83% |
| Cc1ccc(-c2ccc3nnc(CNC(=O)c4cnccn4)n3n2)cc1 | active: 12.6 µM |  |
| Cc1ccc(Cn2c(CNS(=O)(=O)c3ccc(Cl)s3)nc3cccnc32)cc1 | inconclusive: 35.5 µM [inhibitor, partial curve, poor fit] |  |
| Cc1cc2[nH]c(=O)c(=O)[nH]c2cc1S(=O)(=O)N1CCN(c2cccc(C)c2C)CC1 | inconclusive: 14.1 µM [inhibitor, partial curve, poor fit] |  |
| CC(C)CCn1c(N2CCN(CCCc3ccccc3)CC2)nc2c1c(=O)[nH]c(=O)n2C |  | inactive: 9.45% |
| Cc1cccc(-c2cccc3c4c([nH]c23)[C@@H]2C[C@H](N(C)C(=O)Nc3ccccc3)[C@H]([C@H](C)O)CN2CC4)c1 | inconclusive: 25.1 µM [inhibitor, single point] |  |
| CC(C(=O)N(C)CC(=O)Nc1ccccc1C(F)(F)F)N1CCN(c2ccccc2Cl)CC1 (configuration not stated) |  | inactive: 22.5% |
| COc1ccccc1-c1nn(CCC(=O)Nc2ccc(F)cc2)c2nc(C)cc(C)c12 | inconclusive: 20 µM [inhibitor, partial curve, poor fit] |  |
| CCOC(=O)C(=O)Nc1c(C(=O)Nc2cccc(F)c2)oc2ccccc12 | inconclusive: 35.5 µM [inhibitor, single point] |  |
| COc1ccccc1N1CCN(c2nc3c(S(=O)(=O)c4ccc(C)c(C)c4)nnn3c3ccc(Cl)cc23)CC1 | inconclusive: 1.26 µM [inhibitor, partial curve, poor fit] |  |
